T1: B7 antigen (B7-1, CD80) expressed on cells (human, UniProt P33681 35-288)
T1 construct: whole, on cells; Stably transfected CHO cells; in the MLR and IgM assays the B7 antigen of the stimulating B cells; also called B7^+ CHO cells; B7-1 positive CHO cells
T1 sequence (looked up): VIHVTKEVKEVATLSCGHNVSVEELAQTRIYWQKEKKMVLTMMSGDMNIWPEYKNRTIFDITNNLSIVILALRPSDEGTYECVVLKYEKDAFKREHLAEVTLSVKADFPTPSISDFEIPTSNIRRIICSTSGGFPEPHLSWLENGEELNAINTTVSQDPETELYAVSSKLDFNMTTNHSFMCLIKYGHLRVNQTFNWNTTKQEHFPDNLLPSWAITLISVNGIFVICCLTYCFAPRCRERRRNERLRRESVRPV

T2: human CD86 expressed on stably transfected CHO cells (human, UniProt P42081 24-329)
T2 construct: whole, on cells; also called CD86+ CHO cells; human CD86 CHO-transfected cells
T2 sequence (looked up): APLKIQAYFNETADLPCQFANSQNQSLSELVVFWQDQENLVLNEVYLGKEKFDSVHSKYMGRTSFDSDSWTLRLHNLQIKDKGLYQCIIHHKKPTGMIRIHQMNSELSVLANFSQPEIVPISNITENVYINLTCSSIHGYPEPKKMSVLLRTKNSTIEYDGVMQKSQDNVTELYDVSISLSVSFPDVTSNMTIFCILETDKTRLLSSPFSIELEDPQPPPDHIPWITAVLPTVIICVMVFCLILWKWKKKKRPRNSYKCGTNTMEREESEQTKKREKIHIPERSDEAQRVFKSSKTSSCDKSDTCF


What was measured:
CD5Ig = target: T3, CD5Ig (human, UniProt P06127 25-371; P01857 in part = IgG part); assay: indirect immunofluorescence, FACS, transfected COS cells, FITC anti-mouse and anti-human Ig second step
T3 construct: range 1-347;domain: hinge, CH2 and CH3 regions; Control fusion protein; also called control CD5Ig fusion protein

[1] = target: T1, B7 antigen (B7-1, CD80) expressed on …; assay: FACS titration on human CD80 CHO cells, FITC goat anti-human immunoglobulin, mean fluorescence intensity
[2] = target: T2, human CD86 expressed on stably …; assay: FACS titration on human CD86 CHO cells, FITC goat anti-human immunoglobulin, mean fluorescence intensity
[3] = target: T1, B7 antigen (B7-1, CD80) expressed on …; assay: FACS titration on CD80 CHO cells, fluorescein goat anti-human IgG, mean fluorescence intensity
[4] = target: T2, human CD86 expressed on stably …; assay: FACS titration on CD86 CHO cells, fluorescein goat anti-human IgG, mean fluorescence intensity
[5] = target: T1, B7 antigen (B7-1, CD80) expressed on …; assay: enzyme immunoassay on ethanol-fixed B7-1+ CHO cells, HRP goat anti-human IgG, A450
[6] = target: T4, CD28 expressed on transfected cells (human, UniProt P10747 19-220); assay: indirect immunofluorescence, FACS, FITC goat anti-human Ig second step
T4 construct: In COS cells expressed from OMCD28, in which the native signal peptide is replaced by that of oncostatin M; also called CD28-transfected COS cells; CD28^+ CHO cells
T4 sequence (P10747 other isoform, or with tags, fused parts or gaps limits assumed): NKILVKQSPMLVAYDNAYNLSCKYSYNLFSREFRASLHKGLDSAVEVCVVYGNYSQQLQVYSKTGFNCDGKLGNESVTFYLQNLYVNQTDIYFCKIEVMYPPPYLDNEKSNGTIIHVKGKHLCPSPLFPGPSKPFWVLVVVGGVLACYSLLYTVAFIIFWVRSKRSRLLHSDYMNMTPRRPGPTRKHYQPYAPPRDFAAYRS

[7] = target: T1, B7 antigen (B7-1, CD80) expressed on …; assay: enzyme immunoassay on ethanol-fixed B7-1+ CHO cells, HRP goat anti-human IgG, A450; remark: listed apart in the source
[8] = target: T2, human CD86 expressed on stably …; assay: cell-based or functional assay

Sequence of CTLA4Ig (chain): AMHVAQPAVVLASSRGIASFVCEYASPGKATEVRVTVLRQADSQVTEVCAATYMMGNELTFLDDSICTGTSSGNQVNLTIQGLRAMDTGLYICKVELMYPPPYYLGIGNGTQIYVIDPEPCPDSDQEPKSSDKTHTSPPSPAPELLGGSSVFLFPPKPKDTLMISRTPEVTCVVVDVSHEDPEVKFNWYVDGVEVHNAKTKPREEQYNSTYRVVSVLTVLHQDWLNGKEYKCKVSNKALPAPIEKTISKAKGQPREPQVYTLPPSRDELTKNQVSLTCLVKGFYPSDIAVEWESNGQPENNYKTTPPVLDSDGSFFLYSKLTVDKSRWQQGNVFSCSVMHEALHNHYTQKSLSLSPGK

| EC50 (read off the curve) [1] [µg/mL] | EC50 (read off the curve) [2] [µg/mL] | EC50 (read off the curve) [3] [µg/mL] | Binder | further results |
| --- | --- | --- | --- | --- |
| – | – | – | CTLA4 receptor expressed on transfected COS cells (receptor, The entry includes the oncostatin M signal peptide; also called OMCTLA4; CTLA4-transfected COS cells) not shown | binding result (CD5Ig): no binding (tested: 10 µg/ml (from the text)) |
| ~0.05 | ~0.06 | ~0.06 | L104EIg (Fc fusion, The entry may carry the signal peptide) not shown | – |
| – | – | – | L104ES25RIg (Fc fusion) AMHVAQPAVVLASSRGIASFVCEYARPGKATEVRVTVLRQADSQVTEVCAATYMMGNELTFLDDSICTGTSSGNQVNLTIQGLRAMDTGLYICKVELMYPPPYYEGIGNGTQIYVIDPEPCPDSDQ[sequence of human IgG1 Fc with changes omitted] | binding result [4]: binds |
| – | – | ~0.1 | L104EG105FIg (Fc fusion) AMHVAQPAVVLASSRGIASFVCEYASPGKATEVRVTVLRQADSQVTEVCAATYMMGNELTFLDDSICTGTSSGNQVNLTIQGLRAMDTGLYICKVELMYPPPYYEFIGNGTQIYVIDPEPCPDSDQ[sequence of human IgG1 Fc with changes omitted] | – |
| ~0.05 | – | ~0.05 | CTLA4Ig (Fc fusion, also called wild type CTLA4Ig; human CTLA4Ig fusion protein) not shown | EC50 (read off the curve) [5]: ~0.01 µg/mL; binding result [2]: binds; binding result [6]: no binding (tested: 10 µg/ml (from the text)); EC50 (read off the curve) [7]: ~0.03 µg/mL |
| ~0.05 | ~0.06 | – | L104EA29YIg (Fc fusion, The entry may carry the signal peptide; also called L104E29YIg) AMHVAQPAVVLASSRGIASFVCEYASPGKYTEVRVTVLRQADSQVTEVCAATYMMGNELTFLDDSICTGTSSGNQVNLTIQGLRAMDTGLYICKVELMYPPPYYEGIGNGTQIYVIDPEPCPDSDQ[sequence of human IgG1 Fc with changes omitted] | inhibition of proliferation of CD86+PMA treated human T cells [8]: ~10 fold |

Source: patent US7105166 (Bristol-Myers Squibb, dated 2006)
